Assay results published in PubChem BioAssay AID588855 (National Center for Advancing Translational Sciences (NCATS), 2011).
Where “and” joins values, the source holds several entries; their conditions need not be identical. Equal entries are not always repeated. About 5,000 (1.2%) of roughly 410,000 compounds were called active. Inconclusive results, whose numbers are uncertain, are shown with a selection of clear calls. The call rests on the fitted dose curve; in most records, active means well fitted inhibition curve with a large enough effect; inconclusive means small, poorly fitted or top-dose-only effect; inactive means no such curve, though single readings can be large or run the other way. Potencies beside an inconclusive call are fits to weak or partial responses and may not hold up.

Experiment: qHTS for Inhibitors of TGF-b; further: nearly all actives have a fitted effect of over 65% in size
Details: HepG2 CAGA-GFP TGF-b/SMAD3 reporter, GFP fluorescence, 18 h, TGF-beta stimulated, 500 pg/mL final; series mostly up to 46.1 µM
Outline: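 Per well, imaged GFP fluorescence of HEPG2 CAGA-GFP cells gives the signal; cells get compound, then TGF-beta (500 pg/mL final), 18 h at 37 degrees C; %Activity versus -TGF-beta and +DMSO controls.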
Potency means the concentration at half of the fitted maximal effect; tags describe the fitted curve by direction and shape.

Compound	Potency
Clc1cccc(Cc2c(C3CCCCC3)nc3ccc(Cl)cn23)c1	inconclusive: 28.2 µM [inhibitor, single point]
CC(C)N(C(=O)Cn1cc(S(=O)(=O)Cc2ccc(Br)cc2)c2ccccc21)C(C)C	inactive
CCCCN(C=O)c1c(CC)nc2ccc(C(=O)Nc3cc(-c4ccccc4)ccc3OC)cn12	active: 7.08 µM
CC(C)c1ccccc1NC(=O)CNCCc1ccc(C(F)(F)F)cc1	inconclusive: 28.2 µM [inhibitor, single point]
COc1ccc(C(=O)Nc2ccc3nc(SCC(=O)N(C)c4ccccc4)sc3c2)cc1	inconclusive: 7.94 µM [inhibitor, partial curve, poor fit]
CC(C)(C)c1ccc2c(c1)N(CC(=O)NCCCN1CCN(c3ccccc3F)CC1)C(=O)CO2	inconclusive: 15.8 µM [inhibitor, single point]
C=CCNC(=S)N/N=C(\C)c1cccc(OC)c1	inactive
Cn1c(CCNC(=O)C2CCCCC2)nc2cc(NC(=O)c3cccs3)ccc21	inconclusive: 6.31 µM [inhibitor, single point]
O=C(CSc1cn(CCNC(=O)c2cccc(C(F)(F)F)c2)c2ccccc12)Nc1ccc2c(c1)OCCO2	inconclusive: 22.4 µM [inhibitor, single point]
O=C(Nc1ccc(Cl)c(Cl)c1)Nc1ccccc1NS(=O)(=O)c1cccs1	inconclusive: 35.5 µM [inhibitor, single point]
Cc1ccc(Sc2nc(C)c([N+](=O)[O-])c(C)c2C#N)cc1	inconclusive: 0.316 µM [inhibitor, full curve, poor fit]
Cc1nc2ccc(C(=O)NCCCn3ccnc3)cn2c1N(C)C(=O)CCc1ccccc1	inconclusive: 4.47 µM [inhibitor, single point]
COc1ccc(C(=O)/C=C/c2cn(CN3CCN(C)CC3)c3ccccc23)cc1	inconclusive: 20 µM [inhibitor, single point]
O=C(Nc1nc2ccc(F)cc2s1)c1nc(S(=O)(=O)Cc2ccccc2F)ncc1Cl	active: 6.31 µM
CCc1nc2ccc(C(=O)NCC3CCCCC3)cn2c1N(C)Cc1ccc(OC)cc1	inconclusive: 35.5 µM [inhibitor, single point]
Cc1cc(NS(=O)(=O)c2ccc(NC(=O)Cc3ccc([N+](=O)[O-])cc3)cc2)nc(C)n1	inactive
CSc1cccc(NC(=S)N(CCCN2CCCC2)Cc2cccs2)c1	inactive
COc1cccc(S(=O)(=O)NCc2ccc(C(=O)Nc3ccc(Cl)c(Cl)c3)cc2)c1	inconclusive: 0.1 µM [inhibitor, full curve, poor fit]
CC(C)[C@H](NC(=O)C1CCN(S(=O)(=O)c2ccccc2)CC1)C(=O)NCc1ccco1	inactive
Cc1[nH]c(-c2ccc(F)cc2)cc1C(=O)N1CCN(c2cccc(Cl)c2)CC1	active: 25.1 µM
CCCC(=O)N(c1ccc2oc(=O)sc2c1)S(=O)(=O)c1cccs1	inconclusive: 35.5 µM [inhibitor, single point]

Compound	Potency
Cc1cc(C)c(NC(=O)CNC(=O)Cc2sc(C)nc2-c2ccc(F)cc2)c(C)c1	inconclusive: 35.5 µM [inhibitor, single point]
CC1=C(C(=O)Nc2cc(Cl)ccc2C)C(c2sccc2C)n2ncnc2N1 (stereo not drawn)	inconclusive: 35.5 µM [inhibitor, single point]
CN1C(=O)/C(=C/c2ccccc2Cl)Sc2ccc(C(=O)NCc3cccnc3)cc21	inconclusive: 35.5 µM [inhibitor, single point]
O=C(CC1C(=O)NCCN1Cc1ccccc1C(F)(F)F)NCCN1CCCCC1=O (stereo not drawn)	inactive
COc1cccc(C(=O)NCCS(=O)(=O)N(C)Cc2ccccc2)c1	inactive
C[C@@H]1CN([C@@H](C)CO)C(=O)c2ccccc2-c2ccccc2CO[C@@H]1CN(C)S(=O)(=O)c1ccc(C(F)(F)F)cc1	inconclusive: 20 µM [inhibitor, single point]
COc1ccc(C2=C(Nc3ccccc3)c3ccccc3C2=O)cc1	inconclusive: 35.5 µM [inhibitor, single point]
Cc1cccc(NC(=O)C2CCN(S(=O)(=O)c3ccc4c(c3)OCCCO4)CC2)n1	inconclusive: 2.51 µM [inhibitor, partial curve, poor fit]
CCC(C)NC(=O)c1cn(C)c(=O)c2cc(OC)c(OC)cc12 (stereo not drawn)	inconclusive: 35.5 µM [inhibitor, single point]
CC(C)c1ccc(OCc2ccc(C(=O)N3CCN(c4ccccn4)CC3)cc2)cc1	inconclusive: 8.91 µM [inhibitor, partial curve, poor fit]
CCOc1ccccc1NC(=O)CSc1nc2nc(-c3cccs3)cc(C(F)(F)F)c2c(=O)[nH]1	inconclusive: 20 µM [inhibitor, single point]
CCCc1cc(=O)[nH]c(Nc2cc(C)cc(C)c2)n1	inactive
C[C@@]12C(=O)N(c3cccc(Cl)c3)C(=O)N1[C@H](c1ccc(Cl)cc1)[C@@H]1C(=O)N(C3CCCCC3)C(=O)[C@@H]12	inconclusive: 11.2 µM [inhibitor, partial curve, poor fit]
C/C(N)=C(/C#N)C(=O)CSc1cc(Cl)ccc1Cl	inconclusive: 35.5 µM [inhibitor, single point]
COc1ccc(-c2noc(-c3ccc(N4CCN(c5ccccc5OC)CC4)c([N+](=O)[O-])c3)n2)cc1	inconclusive: 0.112 µM [inhibitor, full curve, poor fit]
O=C(NCCc1ccccc1)c1ccc(Cn2c(SCc3ccccc3F)nc3cccnc32)cc1	inactive
CCN(C(=O)CSc1ccc2ccccc2n1)C1CCCCC1	inconclusive: 11.2 µM [inhibitor, single point]
O=C(Nc1nc2ccccc2[nH]1)C1CCCO1 (stereo not drawn)	inactive
Cc1cccc2cc(CN(CC3CCCO3)C(c3nnnn3Cc3ccco3)C(C)C)c(=O)[nH]c12 (stereo not drawn)	inconclusive: 22.4 µM [inhibitor, partial curve, poor fit]
CCn1c(=O)c(C(=O)NCc2ccccc2)c(O)c2ccccc21	inactive
CCOC(=O)CN1C(c2ccc(O)cc2)Nc2ccc(Br)cc2C1c1ccccc1 (stereo not drawn)	inconclusive: 35.5 µM [inhibitor, partial curve, poor fit]

Compound	Potency
CCc1ccc(NC(=O)CSc2nc(-c3cccc(OC)c3)nc3c2Cc2c(CO)cnc(C)c2O3)cc1	inconclusive: 3.55 µM [inhibitor, partial curve]
CCCN(CCC)Cc1c(C(=O)N/N=C/c2ccc(Br)cc2)nnn1-c1nonc1N	inconclusive: 12.6 µM [inhibitor, partial curve, poor fit]
CC(C)CC(c1nc2ccccc2[nH]1)n1c(-c2ccccc2Br)nc2ccccc21 (stereo not drawn)	inconclusive: 17.8 µM [inhibitor, single point]
O=C1c2ccccc2C(Nc2ccc(F)c(Cl)c2)N1Cc1ccco1 (stereo not drawn)	inconclusive: 35.5 µM [inhibitor, single point]
NS(=O)(=O)c1cccc(NC(=O)COC(=O)COc2ccc3ccccc3c2)c1	inactive
Cc1sc(NC(=O)CN(Cc2ccc(F)cc2)C(=O)C(C)(C)C)c(C(N)=O)c1C	inactive
COc1ccc(-c2nc(CN3CCN(c4ncnc5ccccc45)CC3)c(C)o2)c(OC)c1	inconclusive: 11.2 µM [inhibitor, partial curve, poor fit]
CC(=O)c1cccc(NC(=O)CC2SC(N3CCCCC3)=NC2=O)c1 (stereo not drawn)	inconclusive: 6.31 µM [inhibitor, full curve, poor fit]
NC(=O)C1CCN(C(=O)c2ccc(Oc3cc(Cl)cc(Cl)c3)o2)CC1	inconclusive: 12.6 µM [inhibitor, partial curve, poor fit]
CCN(CCN(C)Cl)/[N+]([O-])=N/Oc1ccc([N+](=O)[O-])cc1[N+](=O)[O-]	inconclusive: 35.5 µM [inhibitor, single point]
O=C(Nc1ccccc1Cl)c1cc2ccccc2o/c1=N\O	inactive
Cc1[nH]ccc(=O)c1OCc1c(Cl)cccc1Cl	inconclusive: 6.31 µM [inhibitor, single point]
Cc1ccc(NC(=O)c2ccc(Cl)cc2Cl)cc1O	inconclusive: 14.1 µM [inhibitor, single point]
CCOC(=O)C1=C(Nc2ccccc2)CC(C)(O)C(C(=O)OCC)C1c1ccc(Cl)cc1 (stereo not drawn)	inconclusive: 11.2 µM [inhibitor, partial curve, poor fit] and inconclusive: 15.8 µM [inhibitor, single point]
COc1ccc(CN(C)C(=O)c2ccc(OCC(=O)Nc3cccc(C(F)(F)F)c3)c(OC)c2)cc1	inconclusive: 11.2 µM [inhibitor, single point]
CCC(C)NC(=O)CSc1c2c(nc3cc(Cl)ccc13)CCCC2 (stereo not drawn)	inactive
O=C(COc1ccccc1F)N1N=C(c2cccs2)CC1c1ccco1 (stereo not drawn)	inactive
O=c1[nH]c(-c2ccccc2)c(-c2ccccc2)o1	inconclusive: 35.5 µM [inhibitor, single point]
O=C(/C=C/c1ccco1)NC(=S)Nc1ccccc1	inconclusive: 15.8 µM [inhibitor, single point]
COc1cccc(CNC(=O)C(=O)NCC(c2ccc3c(c2)OCO3)N2CCOCC2)c1 (stereo not drawn)	inactive
CCOc1ccc(NC(=O)Nc2nc(SCC)ns2)cc1	inconclusive: 10 µM [inhibitor, partial curve]
